The densities may have been worked out from excess volumes.
Experiment: xn = mol fraction of the nth substance listed
Conditions: 100 kPa

CCCCCO + CCCC[n+]1ccn(C)c1.O=[N+]([O-])[O-]
x2 = 0
Conditions | mass density [kg/m3]
293.15 K | 814.5
303.15 K | 807.1
313.15 K | 799.6
323.15 K | 792

CCCC[n+]1ccn(C)c1.O=[N+]([O-])[O-] + CCCCCO
mass density [kg/m3]
Conditions | 293.15 K | 303.15 K | 313.15 K | 323.15 K
x1 = 0.0824 | 859.7 | 852.7 | 845.6 | –
x1 = 0.1538 | 895.2 | 888.4 | 881.5 | 875
x1 = 0.2318 | 930.5 | 923.8 | 917.1 | 910.7
x1 = 0.3425 | 975.5 | 968.9 | 962.3 | 956.1
x1 = 0.4363 | – | 1003 | 996.5 | 990.6
x1 = 0.5668 | – | 1045.3 | 1039 | 1033.3
x1 = 0.6481 | 1075.1 | 1068.9 | – | 1057.2
x1 = 0.7481 | – | 1095.5 | 1089.5 | 1084.1
x1 = 0.8416 | 1124.1 | 1118.1 | – | 1107.1
x1 = 0.9415 | 1146.2 | 1140.3 | – | –
x1 = 1 | 1158.3 | 1152.3 | 1146.5 | 1141.2
